# Data from PubChem BioAssay AID1508642 (National Center for Advancing Translational Sciences (NCATS), 2021).
# Screen size: about 43,000 compounds; about 200 (0.47%) were called active. Roughly 12% stayed inconclusive and do not appear here. Calls follow the shape of the dose curve; as a rule, active = well fitted cell-killing curve with a large enough effect; inconclusive = small, poorly fitted or top-dose-only effect, or effect the other way; inactive = flat fitted curve, though single readings scatter. The list shows a part of the results.
# Assay: Cell viability qHTS assay in S16 Pmp22-F2sN cells; also: nearly all actives have a fitted effect of over 65% in size
# Conditions: S16 Pmp22-F2sN Schwann cells viability, CellTiter-Glo, 24 h; series mostly up to 57.5 µM; activity change, negative = cytotoxicity: at the top concentration
# Procedure, shortened: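 S16 Pmp22-F2sN Schwann cells (500-1,000/well) in phenol-red-free DMEM with 10% FBS received 23 nL compound by pin tool for 24 h at 37 °C. Viability was then read as CellTiter-Glo luminescence after 15 min at room temperature.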
# % is scaled to controls: 0 for no effect and ±100 for the full control effect; potency is read from the fitted curve at half-maximal effect.
Structure (SMILES),"activity change, negative = cytotoxicity",Potency
Cc1noc(-c2ccc(N3CCCCC3C)c([N+](=O)[O-])c2)n1 (stereo not given),inactive: -8.94%,–
COc1cc(Cl)c(C)cc1NC(=O)c1c(C)oc2nc(C)nc(N3CCCC3)c12,inactive: -2.33%,–
Cc1ccc(C)c(N2CCN(C(=O)CCc3c(C)nc4c(c3C)c(=O)n(C)c(=O)n4C)CC2)c1,inactive: 7.59%,–
CCc1ccc(NC(=O)Cn2cnc3nc4c(cc3c2=O)CCCC4)cc1,inactive: -20.4%,–
Cc1ccc(C(=O)N2CC(=O)Nc3ccc(Br)cc3C2c2ccc(F)cc2)cc1C (stereo not given),inactive: -24.9%,–
COc1ccccc1CNC(=O)C1CCN(c2ncnc3c2nc2n3CCCCC2)CC1,inactive: -0.135%,–
CC(C)CCNC(=O)c1c[nH]c2ccc(S(=O)(=O)Nc3cccc(C(F)(F)F)c3)cc2c1=O,inactive: -1.92%,–
COc1ccc(C(CNC(=O)c2oc3ccccc3c2C)N2CCCCC2)cc1 (stereo not given),inactive: 3.13%,–
CCc1ccc(-n2c3nc(=O)[nH]c(=O)c-3cc3c(C)nn(-c4ccccc4)c32)cc1,inactive: 2.58%,–
CC(C)(C)OC(=O)N1CCC(c2nnc(SCc3ccccc3Cl)o2)CC1,inactive: 12.6%,–
CS(=O)(=O)c1ncc(N(Cc2ccco2)Cc2cccs2)c(C(=O)Nc2ccccc2F)n1,inactive: 8.44%,–
COc1ccc(Cl)cc1NC(=O)C(C)n1c(=O)cc(C(F)(F)F)c2c(C)nn(C)c21 (stereo not given),inactive: -14.2%,–
CCc1c(C)sc2c1CCN(C(=O)Nc1ccccc1Cl)C2c1ccc(OC)cc1 (stereo not given),inactive: 7.2%,–
Cc1ccc(-c2noc(-c3ccc(NC4CCCC4)c([N+](=O)[O-])c3)n2)cc1,inactive: -0.161%,–
COc1ccc(N2C(=O)NC(NS(=O)(=O)c3ccc(NC(C)=O)cc3)(C(F)(F)F)C2=O)cc1 (stereo not given),inactive: 5.41%,–
CCOc1ccc(CNC(=O)CCCn2nc(C)c3c(C)n(-c4ccc(C)cc4)nc3c2=O)cc1,inactive: -6.02%,–
Cc1ccc(Cn2ccn(Cc3ccc(C)cc3)c(=O)c2=O)cc1,inactive: -5.07%,–
CC1CCc2onc(C(=O)N3CCN(c4ccc(Cl)cc4)CC3)c2C1 (stereo not given),inactive: -9.69%,–
CCCCNC(=O)Cn1c(=O)cc(C)c2c(C)nn(-c3cccc(Cl)c3C)c21,inactive: -17%,–
Cc1noc2ncnc(N3CCCC(C(=O)Nc4cc(F)ccc4F)C3)c12 (stereo not given),inactive: -10.7%,–

Structure (SMILES),"activity change, negative = cytotoxicity",Potency
CCOC(=O)c1c(C)c(C(=O)NCc2ccc(Cl)cc2)c(C)n1C,inactive: 0.572%,–
COc1ccccc1NC(=O)C1=C(C)Nc2nc(-c3ccco3)nn2C1c1cccc(C)c1 (stereo not given),inactive: 10.8%,–
CCc1ccc(-n2c(=O)c3c(C)c(C(=O)N(C)C)sc3n(CC(=O)Nc3cc(Cl)ccc3C)c2=O)cc1,inactive: -6.37%,–
CCC(=O)Nc1ccc(C)cc1-c1nc2ccccc2n(CC(=O)c2ccc(C)cc2)c1=O,inactive: 3.18%,–
CC(C)(C)OC(=O)N1CCC(c2c(C(=O)NCc3ccco3)cnn2-c2ccc(F)cc2F)CC1,inactive: -2.94%,–
O=C(NCCS(=O)(=O)N1CCN(c2ccc(F)cc2)CC1)c1ccccc1Br,inactive: -9.89%,–
CCOc1ccc(CC(=O)NCCc2sc(-c3cccc(F)c3)nc2C)cc1,inactive: 7.7%,–
COc1ccc(NC(=O)c2cc(=O)c3cc(C)cc(C)c3o2)cc1,inactive: -25.2%,–
Cc1nc2c(-c3ccccc3)c(C)[nH]n2c(=O)c1Cc1ccc(Br)cc1,–,active: 10 µM
CCOc1cccc2sc(NC(=O)c3ccc(S(=O)(=O)N4CCCCC4)cc3)nc12,inactive: 0.0794%,–
CCOC(=O)c1c(-c2ccc(Br)cc2)csc1NC(=O)c1ccc(C(C)(C)C)cc1,inactive: 4.01%,–
Cc1ccc(CNC(=O)c2cc(=O)c3cc(C)c(C)cc3o2)cc1,inactive: 2.2%,–
COc1ccc(CNC(=O)C2CCCN(C(=O)c3cnn(-c4ccc(F)cc4)c3-n3cccc3)C2)cc1 (stereo not given),inactive: 0.778%,–
CC1CCN(S(=O)(=O)c2ccc3c(ccc(=O)n3CC(=O)NCc3ccccc3)c2)CC1,inactive: -8.53%,–
CCCS(=O)(=O)c1nc(S(=O)(=O)c2ccc(C)cc2)c(NCC(C)C)s1,inactive: -1.46%,–
Cc1ccc(CCNC(=O)c2oc(=O)c3ccccc3c2-c2ccc(C)cc2)cc1,inactive: 26.5%,–
CC(CNc1nc2ccccc2c2nc(-c3ccccc3)nn12)c1ccccc1 (stereo not given),inactive: 24.7%,–
COc1ccc(NC(=O)c2cc3c(=O)n(C)c4cc(Cl)ccc4c3s2)cc1Cl,inactive: 1.48%,–
CC(=O)Nc1cccc(NC(=O)CSc2cn(CC(=O)N3CCCC3)c3ccccc23)c1,inactive: 10.3%,–
CCN1CCN(Cc2nc3cc(NC(=O)c4cccc([N+](=O)[O-])c4)ccc3n2CC)CC1,inactive: -2.18%,–

Structure (SMILES),"activity change, negative = cytotoxicity",Potency
CCc1ccc(NC(=O)Cn2c(C(=O)OC)cc3oc(C)cc32)cc1,inactive: -6.48%,–
Cc1ccc(C)c(NC(=O)CSc2nnc(NC(=O)Nc3ccccc3)s2)c1,inactive: 5.17%,–
CCCCCCC(=O)Nc1cc2nc3c(nc2cc1C)c(=O)n(C)c(=O)n3C,inactive: -0.446%,–
COc1ccc(NC(=O)CN2CCN(C3CCCCC3)C(=O)C2=O)cc1,inactive: 21.9%,–
CCc1ccc(C2CC(=O)c3c([nH]c(C(=O)OC4CCCCCC4)c3C)C2)cc1 (stereo not given),inactive: 4.9%,–
Cc1ccccc1OCC(=O)Nc1ccc2[nH]c(=O)sc2c1,inactive: -6.4%,–
CCOC(=O)N1CCC(NC(=O)c2ccc3c(c2)N(Cc2ccc(F)cc2)C(=O)c2ccccc2S3=O)CC1 (stereo not given),inactive: -11.2%,–
COc1ccc(CCNC(=O)c2nc(SCc3ccc(F)cc3)ncc2Cl)cc1OC,inactive: -1.73%,–
CCOC(=O)C1CCN(S(=O)(=O)c2cc(-c3cc(C)no3)ccc2OC)CC1,inactive: -3.62%,–
COc1ccc(C)cc1Nc1c2c(nc3ccccc13)CCC2,inactive: -14.9%,–
O=C(COc1ccccc1)Nc1nnc2n1CCS2,inactive: 7.04%,–
CCOC(=O)c1c(C)[nH]c(C)c1S(=O)(=O)NCC(=O)Nc1cc(Cl)ccc1OC,inactive: 21.9%,–
CC(=O)c1ccc(NC(=O)COc2ccccc2-c2nc(C(C)C)no2)cc1,inactive: 2.09%,–
COc1cc(OC)cc(-c2nc3nc(C)c(CCC(=O)Nc4ccccc4)c(C)n3n2)c1,inactive: 22.9%,–
Cc1ccc(NC(=O)C(Cc2ccccc2)NS(=O)(=O)c2ccc3c(c2)oc(=O)n3C)cc1C (stereo not given),inactive: 0.896%,–
CC(C)(C)C(=O)Cn1c(=O)n(CCCCCC(=O)NCc2ccccc2Cl)c(=O)c2sccc21,inactive: -16.4%,–
COCCn1c(SCC(=O)c2c[nH]c3ccccc23)nc2cc(C(=O)NCC(C)C)ccc2c1=O,inactive: 1.15%,–
Cc1ccc(O)c(NC(=O)c2nc3nc(C)cc(C(F)F)n3n2)c1,inactive: 17.4%,–
O=c1oc2ccc3ccccc3c2cc1-c1nnc(Nc2cc(C(F)(F)F)ccc2Cl)s1,inactive: -21.2%,–
Cc1ccc(N(CC(=O)Nc2ccc(OC(F)(F)F)cc2)S(=O)(=O)c2c(C)noc2C)cc1,inactive: 10%,–
